Data from article PMC4336329 (PLoS ONE, 2015).
The whole screen tested about 310,000 compounds, of which about 14,000 (4.5%) showed an effect of 50% or more. Effects have a minus sign here. The list shows a part of the results.

target: human ether-à-go-go-related gene (hERG) potassium channel (human, UniProt Q12809); assay: primary screen, population patch clamp on CHO cells stably expressing hERG
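Also: peak tail current of the secondary pulse compared with the same well before compound.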

human ether-à-go-go-related gene (hERG) potassium channel, sequence (Q12809 whole entry, looked up): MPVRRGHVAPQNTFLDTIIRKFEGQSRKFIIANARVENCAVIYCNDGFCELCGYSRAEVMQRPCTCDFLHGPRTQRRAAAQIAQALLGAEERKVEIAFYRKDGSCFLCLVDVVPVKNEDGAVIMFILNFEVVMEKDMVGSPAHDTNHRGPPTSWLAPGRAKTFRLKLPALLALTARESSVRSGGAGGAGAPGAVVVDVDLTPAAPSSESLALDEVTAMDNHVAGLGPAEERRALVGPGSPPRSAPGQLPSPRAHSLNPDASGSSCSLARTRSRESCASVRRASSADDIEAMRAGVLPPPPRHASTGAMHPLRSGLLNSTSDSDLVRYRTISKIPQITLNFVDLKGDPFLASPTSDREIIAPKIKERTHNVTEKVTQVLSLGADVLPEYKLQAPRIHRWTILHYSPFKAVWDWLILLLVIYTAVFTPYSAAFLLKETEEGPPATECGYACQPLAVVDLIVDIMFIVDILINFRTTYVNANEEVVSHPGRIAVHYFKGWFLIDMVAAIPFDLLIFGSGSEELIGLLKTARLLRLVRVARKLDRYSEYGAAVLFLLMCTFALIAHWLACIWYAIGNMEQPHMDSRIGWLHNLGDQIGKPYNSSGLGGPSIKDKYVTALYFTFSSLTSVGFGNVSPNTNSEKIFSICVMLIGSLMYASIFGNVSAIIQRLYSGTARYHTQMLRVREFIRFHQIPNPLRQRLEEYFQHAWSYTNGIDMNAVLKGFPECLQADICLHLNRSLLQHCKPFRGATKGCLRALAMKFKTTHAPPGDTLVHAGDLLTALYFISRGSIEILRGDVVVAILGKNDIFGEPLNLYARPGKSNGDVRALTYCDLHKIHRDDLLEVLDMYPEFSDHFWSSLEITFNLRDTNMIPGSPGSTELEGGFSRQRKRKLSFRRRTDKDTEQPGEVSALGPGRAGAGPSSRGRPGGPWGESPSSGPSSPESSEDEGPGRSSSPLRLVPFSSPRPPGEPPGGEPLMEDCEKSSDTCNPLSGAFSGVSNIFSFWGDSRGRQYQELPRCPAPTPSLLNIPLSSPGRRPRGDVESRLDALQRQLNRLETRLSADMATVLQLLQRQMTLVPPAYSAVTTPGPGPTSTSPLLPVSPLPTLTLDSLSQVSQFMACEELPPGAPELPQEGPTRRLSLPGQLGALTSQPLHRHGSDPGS

| SMILES | hERG current change (%, negative = inhibition) at 10uM |
| --- | --- |
| CN(C)CCN(C(=O)c1ccc(S(=O)(=O)N(C)C)cc1)c1nc2cc3c(cc2s1)OCCO3.Cl | -40.7% |
| O=C(NCC(c1cccs1)N1CCOCC1)C1CCN(S(=O)(=O)c2ccccc2C(F)(F)F)CC1 (stereo not shown) | -33.4% |
| CCN1CCCC1CNC(=O)Cn1cnc2ccc(S(=O)(=O)N3CCC(C)CC3)cc2c1=O (stereo not shown) | -47.7% |
| Nc1c2c(nc3cccc(Cl)c13)N(c1ccccc1)CC2 | 31.7% |
| CCCCn1c(O)c(C(CC)=NCCCN(C)C)c(=O)[nH]c1=O | -29.2% |
| CCOc1ccc(/C=C/c2c([N+](=O)[O-])c(=O)n(C)c(=O)n2C)cc1 | 15% |
| Cc1ccc(C(=O)N2CCc3ccccc32)cc1[N+](=O)[O-] | -6.55% |
| CCn1c(SCC(N)=O)nnc1-c1ccc2[nH]c(C)c(C)c2c1 | 0.594% |
| O=C(CSc1nnc(-c2ccco2)c(-c2ccco2)n1)Nc1ccccc1 | -75.2% |
| CCO[C@H]1OC(C(=O)NC2CC2)=C[C@@H](c2c[nH]c3ccccc23)[C@@H]1CCCO | 2.14% |
| CC(C)(C)C(=O)N1CCN(c2nc3ccc(Br)cc3s2)CC1 | -8.45% |
| O=C(CSc1nnc(-c2ccco2)n1Cc1ccco1)N1CCOCC1 | -12% |
| O=C(Nc1nnc(-c2cccs2)s1)C1CC1 | 22.7% |
| CCOC(=O)COc1ccc(S(=O)(=O)NCC2CCCO2)cc1 (stereo not shown) | 3.8% |
| Cc1ccc2c(c1)N(CC(=O)O)C(=O)CO2 | -3.05% |
| CCN(CC)CCCN1C(=O)C(=O)/C(=C(/O)c2ccc(C)cc2)C1c1ccccn1 (stereo not shown) | 2.21% |
| O=C(Nc1ccccc1C(=O)OC1CCOC1=O)c1ccco1 (stereo not shown) | -24.1% |
| CCCC1(CCC)C(=O)NC(=Nc2ccccc2)NC1=O | 13.5% |
| Nc1nnnn1/N=C/c1cccc(Oc2ccccc2)c1 | 6.28% |
| COc1cc(C(=O)Nc2nc3ccccc3[nH]2)ccc1OC(F)F | 18% |
| COc1ccccc1OCC(=O)Nc1ccc(S(=O)(=O)Nc2cc(C)nc(C)n2)cc1 | 10% |
| COc1ccc(CCn2c(O)c(C=NCCCO)c(=O)[nH]c2=O)cc1OC | 18.3% |
| COc1cccc(C(=O)COc2ccc3ccc(=O)oc3c2)c1 | 21.4% |
| Cc1cc2nc(CCN(Cc3cccnc3)C(=S)Nc3ccccc3)[nH]c2cc1C | -11.5% |
| CCN(CC)CCn1c(N)c(S(=O)(=O)c2ccccc2)c2nc3ccccc3nc21 | -49.4% |
| CN1C(=O)C2(c3ccccc31)N(C)CC(c1ccccn1)C21SC(=S)N(Cc2ccco2)C1=O (stereo not shown) | -11.6% |
| Cc1cc(C(=O)CSc2nnnn2C)c(C)n1-c1ccc2c(c1)OCCO2 | -11.3% |
| COc1cccc(C(=O)Oc2cc(C)[nH]c(=O)c2[N+](=O)[O-])c1 | 18% |

| SMILES | hERG current change (%, negative = inhibition) at 10uM |
| --- | --- |
| O=C(Nc1ccc(Cl)c(Cl)c1)N1CCSCC1 | 0.506% |
| C=CCn1c(=O)c2c(nc(-c3ccc(S(=O)(=O)O)cc3)n2C)n(C)c1=O | 6.59% |
| CC(=O)Oc1ccc2c(=O)c(Oc3ccccc3)c(C)oc2c1OC(C)=O | 11.5% |
| O=C(NCc1ccc2c(c1)OCO2)c1ccc(N2CCCCCC2)c([N+](=O)[O-])c1 | 4.72% |
| CC(=O)N/C(=C\c1ccc(Cl)cc1)C(=O)O | 3.81% |
| Cc1ccc(SCC(=O)NC(=O)NCc2ccccc2)c(C)c1 | 6% |
| CN1CCN(C(=O)c2ccc3c(=O)n(-c4ccc(F)cc4)c(=S)[nH]c3c2)CC1 | 19.8% |
| CCCCCn1c(=O)c(C(=O)Nc2nc3ccccc3[nH]2)c(O)c2ccccc21 | -13.6% |
| COc1ccc(S(=O)(=O)N2CCOCC2)cc1NC(=O)c1ccncc1 | 13.8% |
| COc1ccccc1CNC(=O)COC(=O)/C=C/c1ccc(OC(F)F)c(OC)c1 | 7.34% |
| CCSc1sc(CC)cc1C=O | 5.34% |
| CN(Cc1ccc(Cl)c(Cl)c1)C(=O)c1cccc(S(=O)(=O)N2CCN(Cc3ccccc3)CC2)c1 | -17.6% |
| O=C(O)CSc1ncnc2c1sc1nc(-c3ccccc3)c3c(c12)CCC3 | 10.3% |
| O=C(c1ccco1)N1CCN(S(=O)(=O)c2ccc(Br)cc2)CC1 | -8.4% |
| CCOc1ccccc1NC(=S)N1CCN(c2ccccc2)CC1 | 7.53% |
| COc1ccc(-c2csc(=Nc3ccccc3)n2CCO)cc1 | 6.86% |
| COc1ccc(CNC(=O)C(NC(C)=O)C(=O)Nc2ccc(OC)cc2)cc1 (stereo not shown) | 9.29% |
| COc1cc(C(=O)NCC(=O)NCCSc2ccc(Br)cc2)cc(OC)c1OC | -20.2% |
| Cc1[nH]nc(Nc2ccc(O)cc2)c1[N+](=O)[O-] | 23.6% |
| COc1ccc(OCCSCc2nnc(NC(=O)Nc3ccc(Cl)cc3)s2)cc1 | 4.36% |
| Cc1sc(C(C2C(=O)CC(C)(C)CC2=O)C2C(=O)CC(C)(C)CC2=O)cc1[N+](=O)[O-] | 13.1% |
| COC(=O)c1cc(NS(=O)(=O)c2ccc(N3CCC(C)CC3)c([N+](=O)[O-])c2)cc(C(=O)OC)c1 | -5.73% |
| CC(=O)NC(Cc1ccccc1)C(=O)N1CCN(C(=O)c2ccco2)CC1 (stereo not shown) | 14.7% |
| Oc1[nH]c2ccccc2c1/C=N/N1CCCCC1 | 12.4% |
| Cc1cc(C)n2nc(S(=O)(=O)N(C)Cc3ccccc3)nc2n1 | -11.7% |
| Cc1cc(C)cc(-n2ncc3c2CCCC3NC(=O)CCCn2cncn2)c1 (stereo not shown) | 6.57% |
| CCN(CC)CCCN(C)C(=O)Cn1nc(Cc2ccncc2)c2ccccc2c1=O | 16.4% |
